Sequences with one replicate were seen in a single cluster, so their values are uncertain.
Test system: ATP
Experiment: switch fluorescence ratio, 500 uM ATP over buffer (Cy3 cluster intensity, sum of 5 cycles each) (fold (ratio)); higher = stronger signal-on switching upon ATP binding; sequences stand for … in TCGTCGGCAGCGTCAGATGTGTATAAGAGACAGTTTTTTTTTTTTTTTTTTTTTTTTT…TC
Settings: aptamer strand: ATP DNA aptamer (quencher-CACCTGGGGGAGTATTGCGGAGGAAGG + anchor), 100 nM annealed; ATP concentration: 500 uM; one replicate
How it was run: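 Values give the fluorescence ratio for each switch-domain sequence, averaged from per-cluster ratios of summed target-cycle to summed buffer-cycle Cy3 intensity. The Cy3-labelled switching-strand clusters sat on a modified Illumina MiSeq flow-cell, were annealed to 100 nM quencher-labelled ATP aptamer, and were imaged in selection buffer, then after 15 min with 500 uM ATP at 22 °C. Five cycles ran with NaOH stripping and re-annealing between them, and clusters outside 100-1000 RFU were excluded.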
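Note: ATP exposure 15 min at 22 °C before imaging.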

CATGTTCTTG
switch fluorescence ratio: 0.972

GGTGGAGCGT
switch fluorescence ratio: 0.978

AGCAAAACCT
switch fluorescence ratio: 2.79

AGATTGTGTG
switch fluorescence ratio: 1.02

CCGAACGAGG
switch fluorescence ratio: 1.49

TGGCTACGC
switch fluorescence ratio: 1

ACGTTGGATG
switch fluorescence ratio: 1.01

ATTGTAGGCC
switch fluorescence ratio: 1.05

ACAAAAGTAC
switch fluorescence ratio: 1.12

ACACTAGGGT
switch fluorescence ratio: 1.01

TAGTTGCGGG
switch fluorescence ratio: 1.05

GAGAAGTGGG
switch fluorescence ratio: 1.01

GCCTAGTTGG
switch fluorescence ratio: 0.995

TGATTCATGG
switch fluorescence ratio: 0.981

CATCGATGTA
switch fluorescence ratio: 0.977

AGGACCGTGT
switch fluorescence ratio: 1.01

GCTTAACCG
switch fluorescence ratio: 1.02

CAGTGTGCGT
switch fluorescence ratio: 1.02

AAAAAATCAT
switch fluorescence ratio: 1.05

TTCAGTAATT
switch fluorescence ratio: 0.984

ATCACAGAGA
switch fluorescence ratio: 0.968

ATTTGAGGCG
switch fluorescence ratio: 1.02

TTTACAATCC
switch fluorescence ratio: 1.03

GTGAAGTCGG
switch fluorescence ratio: 1

CGTAACGTAT
switch fluorescence ratio: 1.03

GGTAAAGTTT
switch fluorescence ratio: 1.01

AAATATACAC
switch fluorescence ratio: 1.11

AATCTAGAAG
switch fluorescence ratio: 1.01

CATCTGGACC
switch fluorescence ratio: 1.09

ACGTCCATC
switch fluorescence ratio: 1.12

AAATCCGTCC
switch fluorescence ratio: 1.5

TACGAAAGAG
switch fluorescence ratio: 1.14

GGACATGTTT
switch fluorescence ratio: 1.01

CCAGATGCAG
switch fluorescence ratio: 1.03

GGGTTCATTA
switch fluorescence ratio: 0.935

GTGGGATTTA
switch fluorescence ratio: 0.939

CCCAATCCGG
switch fluorescence ratio: 1.06

CGTTTGCTT
switch fluorescence ratio: 0.971

AGGGTCTGCC
switch fluorescence ratio: 1.01

AAACCATAGA
switch fluorescence ratio: 0.997

CCCCTTGACG
switch fluorescence ratio: 0.993

ACAACTGAGA
switch fluorescence ratio: 1.05

TGGCGTGCGC
switch fluorescence ratio: 1.12

ACTGTGCCAG
switch fluorescence ratio: 1.07

GACATAGTCA
switch fluorescence ratio: 1.04

CACTATGATA
switch fluorescence ratio: 1.02

GACGCTCCGA
switch fluorescence ratio: 1.11

AGCTCGCGAA
switch fluorescence ratio: 0.961

GAGGTACTGC
switch fluorescence ratio: 0.986

AGTTGTGTCA
switch fluorescence ratio: 0.946

GCTGGTTGTA
switch fluorescence ratio: 1.11

TGAAGGGATG
switch fluorescence ratio: 0.955

CGGAATTGCA
switch fluorescence ratio: 0.991

CCTGTCAGGT
switch fluorescence ratio: 0.996

GCTTCGAACT
switch fluorescence ratio: 1

CCGAGATCGG
switch fluorescence ratio: 0.995

ACCTTTTCG
switch fluorescence ratio: 1.14

TTCGTAGTA
switch fluorescence ratio: 1.02

ATTCAGCTGT
switch fluorescence ratio: 0.989

TTACTCTTCA
switch fluorescence ratio: 1.05

CAGACGGTTC
switch fluorescence ratio: 1.09

CTCCGGGGTC
switch fluorescence ratio: 2.41

GAGCCATTCT
switch fluorescence ratio: 0.994

AATGAACTTT
switch fluorescence ratio: 0.964

GACACTGGGT
switch fluorescence ratio: 0.994

GGCATGGGCG
switch fluorescence ratio: 1.03

TGGGTCAGA
switch fluorescence ratio: 0.994

ATTAGTCCCT
switch fluorescence ratio: 1.03

GGGGATGCTA
switch fluorescence ratio: 0.989

TGGCACAATA
switch fluorescence ratio: 1.01

AGGCTAAGTT
switch fluorescence ratio: 1.05

GCATAATTGA
switch fluorescence ratio: 1.05

AATTAGTAGA
switch fluorescence ratio: 0.991

TCCTTCAGAC
switch fluorescence ratio: 1.55

GAGTGGGCTG
switch fluorescence ratio: 0.945

TAGAAGTTAT
switch fluorescence ratio: 1.04

AGCGAATAGG
switch fluorescence ratio: 1.07

TGGGGAAGA
switch fluorescence ratio: 0.908

TCGGCGTGCT
switch fluorescence ratio: 1.02

GATCGGGCGT
switch fluorescence ratio: 0.966

GCCCTTCTGA
switch fluorescence ratio: 0.95

GGGATAGGG
switch fluorescence ratio: 0.983

CTGTTGATAT
switch fluorescence ratio: 0.982

CACGGGATAT
switch fluorescence ratio: 1.16

TTATCGAACT
switch fluorescence ratio: 0.998

TAGCCAGGGT
switch fluorescence ratio: 1.03

CTAATGTTTG
switch fluorescence ratio: 0.986

AGTCACCCGG
switch fluorescence ratio: 2.93

GTTCACAATG
switch fluorescence ratio: 1

TAGTTTAAAA
switch fluorescence ratio: 1

GCTCGACGCC
switch fluorescence ratio: 1.91

AGGGTTGATG
switch fluorescence ratio: 0.985

TTTGGCGA
switch fluorescence ratio: 0.89

CTCAAGCCTA
switch fluorescence ratio: 1.05

CTTGATGTGA
switch fluorescence ratio: 1.01

ACATTGTGAC
switch fluorescence ratio: 1.03

AGTCAAAATA
switch fluorescence ratio: 1.03

AGGAGACGAG
switch fluorescence ratio: 1

TATTAAATCG
switch fluorescence ratio: 1.02

TGGGTTCTTA
switch fluorescence ratio: 1.03

GGGCTGGAAG
switch fluorescence ratio: 1.03

TTAAAGAA
switch fluorescence ratio: 1.03

TGCTGTTGGG
switch fluorescence ratio: 0.977

CAGTTAACA
switch fluorescence ratio: 0.999

ATGTCTACAT
switch fluorescence ratio: 1.01

ACAGGAGCTG
switch fluorescence ratio: 1.04

TGGCACCGGC
switch fluorescence ratio: 0.997

TTACCGAAGT
switch fluorescence ratio: 1.36

CTGGGGGCCC
switch fluorescence ratio: 1.02

CATCCGCTGT
switch fluorescence ratio: 4.96

GGCAGGGAAA
switch fluorescence ratio: 1.01

ACGTCATTTA
switch fluorescence ratio: 1.17

CAATCAGATG
switch fluorescence ratio: 1.04

GCTAGACTC
switch fluorescence ratio: 1.85

ACGTAGACAT
switch fluorescence ratio: 1.18

CAAGTAGAT
switch fluorescence ratio: 1

TGCGGAACGG
switch fluorescence ratio: 0.998

TTGAGGAACA
switch fluorescence ratio: 1.04

TACAGTAATG
switch fluorescence ratio: 0.987

GTGACCCGAG
switch fluorescence ratio: 0.994

CCTTAATCGA
switch fluorescence ratio: 1.01

TCCCAGTTGG
switch fluorescence ratio: 1.11

CTATGAGTC
switch fluorescence ratio: 0.993

TGTTGGGCAT
switch fluorescence ratio: 0.977

GCTCCGTTGG
switch fluorescence ratio: 1.65

GATAGATATT
switch fluorescence ratio: 1.03

CGCTATCACC
switch fluorescence ratio: 2.09

TACGCGAACT
switch fluorescence ratio: 1.21

GGACTGTGGT
switch fluorescence ratio: 0.975

GAGTAGCTGT
switch fluorescence ratio: 1

CAAATAGCGT
switch fluorescence ratio: 0.991

ATTTGGAGGT
switch fluorescence ratio: 0.961

ATACCATCCA
switch fluorescence ratio: 0.992

GAAACACTC
switch fluorescence ratio: 1.37

AAATTCGCCT
switch fluorescence ratio: 1.09

TCGTTTCTCT
switch fluorescence ratio: 0.997

CGGCGTCTGG
switch fluorescence ratio: 0.996

TCAGGAGAC
switch fluorescence ratio: 1.1

GCTACACTTT
switch fluorescence ratio: 0.985

GAATTAGTCA
switch fluorescence ratio: 0.984

ACTTAACGGT
switch fluorescence ratio: 1.34

GTAGGTGCTT
switch fluorescence ratio: 1.08

ACAGTAAAT
switch fluorescence ratio: 1.01

CGAGGGCACA
switch fluorescence ratio: 1.1

TTCGGAATTC
switch fluorescence ratio: 1.76

ATTGTCAGTG
switch fluorescence ratio: 0.997

AACCCCGTCC
switch fluorescence ratio: 1.43

CAGTGCCCGC
switch fluorescence ratio: 1.01

CAGAATCCC
switch fluorescence ratio: 1.03

CTCGGGCAGC
switch fluorescence ratio: 1.13

GAGCGCTCGT
switch fluorescence ratio: 1.02

CGGGGCCCCG
switch fluorescence ratio: 0.967

TCGCACGGTT
switch fluorescence ratio: 1.02

CGGGGTGATA
switch fluorescence ratio: 0.988

TATGTAGCT
switch fluorescence ratio: 1.09

ACTGAGAAAG
switch fluorescence ratio: 1.07

TCCAATATGT
switch fluorescence ratio: 0.999

AGGGTCTACA
switch fluorescence ratio: 1.01

Reference: the supplement of paper PMC10126150
